PubChem BioAssay AID1508642 (National Center for Advancing Translational Sciences (NCATS), 2021)
Screen size: about 43,000 compounds; about 200 (0.47%) were called active. Not shown: some 12% with an inconclusive outcome. Calls come from the whole dose curve; as a rule, active = well fitted cell-killing curve with a large enough effect; inconclusive = small, poorly fitted or top-dose-only effect, or effect the other way; inactive = flat fitted curve, though single readings scatter. This is one part of the list.

assay: Cell viability qHTS assay in S16 Pmp22-F2sN cells; details: S16 Pmp22-F2sN Schwann cells (luciferase reporters placed in the Pmp22 gene) viability, CellTiter-Glo, 24 h; series mostly up to 57.5 µM; activity change, negative = cytotoxicity: at the top concentration; note: nearly all actives have a fitted effect of over 65% in size
Method in brief: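 Seed 500-1,000 S16 Pmp22-F2sN cells per well in phenol-red-free DMEM with 10% heat-inactivated FBS; pin-add 23 nL compound; incubate 24 h at 37C; add CellTiter-Glo, wait 15 min protected from light; read luminescence.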
% is set by controls: 0 for no effect and ±100 for the full control effect.

| Compound | activity change, negative = cytotoxicity |
| --- | --- |
| COc1cc(OC)c(NC(=O)Cn2cnc3sc(C)c(S(=O)(=O)N4CCN(C)CC4)c3c2=O)cc1Cl | inactive: -8.14% |
| COc1ccc2ncc3c(-c4ccc(C)c(C)c4)nn(CC(=O)NC4CCCCC4)c3c2c1 | inactive: 12.3% |
| Cc1cnc2c(c1SCC(=O)Nc1ccc(F)cc1F)c(=O)n(C)c(=O)n2C | inactive: 10% |
| Cc1cc(F)ccc1NC(=O)C1CCCN(S(=O)(=O)c2ccc3c(c2)CCCC(=O)N3)C1 (centres undefined) | inactive: 10.1% |
| COc1ccc(N(Cc2cccs2)C(=O)COc2ccc(C(C)C)cc2)cc1 | inactive: -21.8% |
| COc1ccc(S(=O)(=O)c2c(Nc3ccc(C)cc3)sc(C(=O)c3ccc4c(c3)OCO4)c2N)cc1 | inactive: 11.3% |
| CCc1cc2c(cc3c(=O)n(CC(=O)N4CCCCC4)ncn32)s1 | inactive: 10.4% |
| CCOc1ccc2nc(N3CCCC(C(=O)Nc4cccc(Cl)c4C)C3)sc2c1 (centres undefined) | inactive: -0.677% |
| CCCCN(CCCC)CCNC(=O)c1cc(-c2cccnc2)nc2ccc(S(=O)(=O)N3CCC(C)CC3)cc12 | inactive: 12.5% |
| CCCCn1cc(S(=O)(=O)c2ccc(F)cc2)c(=O)c2ccccc21 | inactive: 5.54% |
| COc1ccccc1CNC(=O)c1ccc(-c2nc(CS(=O)c3ccccc3)c(C)o2)cc1 (centres undefined) | inactive: -16.3% |
| Cc1ccc(Cl)cc1NC(=O)CN1C(=O)COc2ccc(S(=O)(=O)N3CCOCC3)cc21 | inactive: -2.23% |
| COc1cccc(CNC(=O)CN2C(=O)CSc3c2c(C)nn3-c2ccccc2)c1 | inactive: -4.83% |
| Cc1ccc(-n2c(=O)c3ccc(C(=O)NCc4ccccc4Cl)cc3n(CC(=O)Nc3cccc(F)c3)c2=O)cc1 | inactive: -0.278% |
| CN(C)c1ccc(CN(CC2CCCO2)C(=O)c2ccc(Br)cc2)cc1 (centres undefined) | inactive: 17.8% |
| Cc1ccc2[nH]c3c(=O)n(CC(=O)N4CCN(c5cccc(C(F)(F)F)c5)CC4)ncc3c2c1 | inactive: 1.99% |
| CCOc1ccc(N2C(=O)N(Cc3c(F)cccc3Cl)c3ccccc3S2(=O)=O)cc1 | inactive: -5.16% |
| O=C(COC(=O)c1cccc(NC(=O)c2ccc(Br)cc2)c1)c1ccc(Br)cc1 | inactive: 2.81% |
| COc1cccc(C(=O)Nc2ccc3nc(N4CCC(C)CC4)cc(C)c3c2)c1 | inactive: -0.868% |
| Cc1nn2c(=O)cc(COC(=O)c3cccc(NC(=O)c4ccc(C(C)(C)C)cc4)c3)nc2s1 | inactive: 7.9% |

| Compound | activity change, negative = cytotoxicity |
| --- | --- |
| COc1ccc(C2=CC(c3cccc(C)c3)n3nnnc3N2)cc1 (centres undefined) | inactive: 9.56% |
| CCOC(=O)c1c(C)oc2nc(C)nc(NCCc3ccc(SC)cc3)c12 | inactive: -8.4% |
| COc1cc(NC(=O)Cn2nc(-c3ccc(C)c(C)c3)ccc2=O)cc(OC)c1 | inactive: 4.69% |
| CCN(CC)S(=O)(=O)c1ccc2c(c1)N(CC(=O)Nc1ccc(C)cc1C)C(=O)C1CCCN21 (centres undefined) | inactive: 6.19% |
| CC(C)NC(=O)c1ccccc1NC(=O)c1nsc2ccccc12 | inactive: -1.42% |
| CCOC(=O)c1[nH]c2c(c1Cc1ccccc1OC)C(=O)CC(c1ccc(OCC)cc1)C2 (centres undefined) | inactive: -0.956% |
| COc1ccc(C(=O)CCC(=O)Nc2ccc(OC)c(Cl)c2)cc1 | inactive: 4.31% |
| O=C(c1ccco1)N1CCN(c2nc3c(Cl)cccc3s2)CC1 | inactive: -11.9% |
| CCN(CC)S(=O)(=O)c1nnc(NC(=O)c2ccc(C(C)C)cc2)s1 | inactive: -6.02% |
| O=C(Cn1c(=O)n(-c2ccc(Cl)cc2)c(=O)c2oc3ccccc3c21)Nc1ccccc1 | inactive: 0.192% |
| CC1CCN(c2ncnc3c2nnn3C)CC1 | inactive: -12.4% |
| Cc1cccc(N2CCN(CCCNC(=O)c3nnc(Cc4c(F)cccc4Cl)o3)CC2C)c1 (centres undefined) | inactive: -17.5% |
| COc1cccc(C(=O)Nc2ccccc2-c2nnc(-c3cc(OC)ccc3Br)o2)c1 | inactive: 0.154% |
| COc1ccc(C2=C(C)C(=O)N(Cc3ccc(C(=O)Nc4cc(C)ccc4C)cc3)S2(=O)=O)cc1 | inactive: -4.15% |
| O=C(Cc1ccc(Cl)cc1)NCC(c1cccs1)S(=O)(=O)c1ccc(F)cc1 (centres undefined) | inactive: -1.44% |
| Cn1cnc(S(=O)(=O)N2CCC(C(=O)NCc3ccc(F)cc3)CC2)c1 | inactive: 4.59% |
| O=C(Nc1ccc(Cl)cc1)c1cc(S(=O)(=O)N2CCc3ccccc32)ccc1F | inactive: -19.9% |
| Cc1ccc(S(=O)(=O)Nc2nc3n(n2)C(c2ccccc2Cl)C=C(c2ccccc2)N3)cc1 (centres undefined) | inactive: -5.38% |
| COc1ccc(-c2nc(Cn3c(SCc4ccccc4F)nc4ccncc43)c(C)o2)cc1OC | inactive: -14.8% |
| O=C(CCS(=O)(=O)c1cc(Br)cc2c1N(C(=O)C1CC1)CC2)Nc1ccc(C(F)(F)F)cc1 | inactive: 4.81% |

| Compound | activity change, negative = cytotoxicity |
| --- | --- |
| CN(Cc1ccccc1)C(=O)C1CCN(S(=O)(=O)c2ccc3nc4c(c(C(=O)O)c3c2)CCCC4)CC1 | inactive: 7.11% |
| COc1ccc(CNC(=O)C2CCN(C(=O)N3CC(C)Oc4ccc(C)cc43)CC2)cc1 (centres undefined) | inactive: -11.2% |
| Cn1c(=O)c2sccc2n2c(CCC(=O)NCc3ccccc3Cl)nnc12 | inactive: 17% |
| CCn1cc(C(=O)NCCc2ccc(C)cc2)c(=O)c2cc(S(=O)(=O)N3CCCCC3)ccc21 | inactive: 7.85% |
| CCOc1ccc(C(=O)Nc2cc(-c3cn4cccnc4n3)ccc2C)cc1OCC | inactive: 0.0726% |
| COc1ccccc1C(=O)Nc1c(C(=O)N(C)c2ccccc2)sc2nc(C)cc(C)c12 | inactive: 1.07% |
| Cc1cccc(NC(=O)c2oc3ccccc3c2NC(=O)c2cc(=O)c3cc(Cl)ccc3o2)c1 | inactive: 5.63% |
| Cn1c(SCC(=O)c2ccc(F)cc2)nnc1-c1ccccc1Br | inactive: -1.65% |
| COc1cccc(CNC(=O)CSc2ncc(S(=O)(=O)c3ccc(Br)cc3)c(=O)[nH]2)c1 | inactive: -0.872% |
| Cc1c(C(=O)Nc2ccc(C(C)C)cc2)sc2nc[nH]c(=O)c12 | inactive: -29.5% |
| COc1ccc(CNC(=O)c2ccc3c(c2)CCN3S(=O)(=O)c2ccc(C)cc2)cc1 | inactive: 0.364% |
| Cc1ccc(NC(=O)C2CCCN2S(=O)(=O)c2cccc3nsnc23)cc1Cl (centres undefined) | inactive: 9.69% |
| COc1ccc(CNC(=O)CSc2ncc(S(=O)(=O)c3ccc(C)c(Cl)c3)c(=O)[nH]2)cc1 | inactive: 1.25% |
| Cc1ccccc1C(=O)N1CCN(CCc2ccccn2)CC1 | inactive: -4.39% |
| CC1CCN(S(=O)(=O)c2ccc3c(c2)CCN3C(=O)Nc2ccc(Br)cc2)CC1 | inactive: 2.47% |
| CN(C)c1ccc(CNS(=O)(=O)c2ccc3[nH]c4c(c3c2)CCCCC4)cc1 | inactive: -0.0291% |
| COc1ccc(Br)cc1CNC(=O)c1nn(-c2ccc(C)cc2)c(=O)c2c1c1ccccc1n2C | inactive: -2.55% |
| Cc1ccc(CNC(=O)c2c(O)nc3c(C)cccn3c2=O)cc1 | inactive: -1.96% |
| Cc1nc2ccc(S(=O)(=O)NC(CC(C)C)C(=O)N3CCN(c4ccc(F)cc4)CC3)cc2s1 (centres undefined) | inactive: -16.3% |
